167 variants from the RNAGym collection of RNA variant scans (doi:10.7554/elife.90254) can be followed below.

The source gives no read counts; variants with many changes may rest on few reads.

Sequences and labels used below:
B1: OR4K15 (parent)
chain: GUUAACGGUCAUAGGCCAUGGAAACUAGGAGCACCAUUUCGCUGCCAGUGAAGAAAUGAACAAAGAAAAUCUGGGCCAGGCAGGCAUCAAAAGAAAUAGUCUUGCGCUCAACCAGAAAGUCUGUAAUCAUUUUAAGGGUA

The data set covers variants of B1. Briefly: self-cleavage, relative activity (ratio to wild type); higher = more cleavage; in vitro, sequencing; the parent is a self-cleaving ribozyme.
As for A13C A67G A68G A90G A140G, the self-cleavage came to 1.08.
As to A13G U43A A63G G65A A90G, the self-cleavage turned out to be 1.15.
Under C17U A22G U26C stands 0.76; under U12C U43C A51U, 1.39; under G15A A23G A51G U131A, 1.64.
On to U12C A30G A118G, for which the self-cleavage is 0.44.
As to A13U A24G A96G U127C, the self-cleavage was found to be 0.58.
Under G14A U39A U102C A140U stands 1.23.
Take A13U U102C U139A: the self-cleavage was 2.35.
Under A13U U43A A47G A69U U103C stands 0.2; under U12C A60G A82U U120G, 0.15.
Under C17U A51U A140U stands 1.08; under A13U A56G A114G A118G, 0.15; under G15U A54G C81G C105U, 0.01.
On to A13U A18U A27G A66U, for which the self-cleavage was found to be 1.08.
For A13U U19A A56G A82U U131C, the self-cleavage stood at 0.29.
Consider A13G A82G U87A, for which the self-cleavage was determined as 0.58.
Then G14A U39C A47U, with 0.78; and U12C A67G U72A A82G A118G, with 0.08; and U12C A27U U57C, with 1.13.
As to A13G A86G A90G, the self-cleavage was determined as 1.52.
Then A13G A54G A94G, with 1.28; and A13G A24G A60G A64G U70C A129G, with 0.88; and A13G A91G A135U, with 0.34.
Then A13G A18G U97C A125U, with 1.25.
Turning to A13G U39C U57C A89G A117G, the self-cleavage was determined as 0.65.
Then U12C A86G G104A A135U, with 0.04; and G14A A24G U43C A55G A56G A62C U87C A95G, with 0.69.
Then G14A A52U A111G, with 0.02.
Take U12C A51U A60G G80A: the self-cleavage was determined as 0.13.
Regarding A13U A18G U19C A23G A66G A118G, the self-cleavage amounted to 0.27.
Regarding U12C U102C G123A, the self-cleavage amounted to 1.18.
On to C17U G80A U120C, for which the self-cleavage came out at 0.16.
As to A13U A24G A54G, the self-cleavage came out at 0.71.
On to C17U U37C U103C A129G, for which the self-cleavage is 0.25.
Take A13U A98G U130C: the self-cleavage worked out at 0.31.
On to A13G A36G A111G, for which the self-cleavage was found to be 0.05.
Turning to G15A A52U A67U A129U, the self-cleavage turned out to be 0.54.
As for U12G A64G A89G, the self-cleavage was found to be 0.93.
As for A13U A23G U108A A118G, the self-cleavage was found to be 0.
Then A13G A18G U57C A135G, with 1.33.
On to A13G G50A A51G A54G, for which the self-cleavage amounted to 0.75.
Under A13G U49C U57C A59U stands 0.6; under G15C G58A A135G, 1.58; under A13G A56G U108C, 0.07.
Turning to A13U A51G A78U, the self-cleavage is 0.16.
As for A13G U38C U43C A89G U122C, the self-cleavage stood at 0.74.
Under G15C U57A A96G U97A C112U stands 0.01.
Then G14A U19C A69G A89G U108C, with 0.01; and G15A A22G A24G U127A, with 0.78.
Regarding A13U A78U G104A, the self-cleavage worked out at 0.01.
Regarding A13G A54G A111G, the self-cleavage was 0.16.
Consider C16U U38C G79A A126G U131A, for which the self-cleavage was 0.16.
With A13G U43C A52G A90G A135G, the self-cleavage was 1.82.
In the case of U12C A68G A140G, the self-cleavage was determined as 1.62.
Under A13G A27G U97A stands 0.23; under A13U U37C A129G, 1.33.
As to A13U U57A U131C, the self-cleavage turned out to be 1.76.
With G14U A51G A54G A66G U87A, the self-cleavage was found to be 0.62.
With A13U U72C U108C, the self-cleavage was 0.05.
With C17U U37C A68G A89G U120C U122C U127A, the self-cleavage amounted to 0.32.
Take A13G A22U G28U A30G A52G: the self-cleavage stood at 1.09.
In the case of A13G G50A A56G A118G U130C, the self-cleavage was 0.33.
Take A13G A78G A82C G83A: the self-cleavage is 0.4.
Consider A13G U38A A47G U100G U130C, for which the self-cleavage was determined as 1.54.
For the variant C16U U70C U102C, the self-cleavage came out at 0.71.
Consider C17U A62G A89G, for which the self-cleavage was determined as 1.23.
On to A13G A66G C121A, for which the self-cleavage worked out at 2.89.
Then U12C A52C A110U A111G U132C, with 0.02; and C17A U39C U100C A116G A135U, with 0.68; and G14U U26G A47G A60G U87C, with 0.63.
For the variant A13G A30G A54U A56G, the self-cleavage was determined as 0.67.
On to A13G A23G A89C, for which the self-cleavage was found to be 0.45.
Then C16A A51G A66G U103C U108C, with 0.02; and U12C U43C A67G A135G U139A, with 1.95.
Turning to A13G U108C A114U, the self-cleavage was found to be 0.03.
Regarding U12C U37C A60G U100A A114G A134G, the self-cleavage came out at 0.03.
For G14U A51G A64G, the self-cleavage was 0.99.
Consider A13G U39C A60G, for which the self-cleavage came to 1.1.
Under U12C A68G C77A A90G A95G A126G A135G stands 1.42.
Under C16U A36G A117G stands 1.5; under A13U A22G A69G A78U U100C G123A U132A, 0.99.
Then A13U U57A A126G U127C U132C, with 0.7; and U12C U39C A62G A67G U100C, with 1.53; and U12C A82G U131C, with 0.46.
In the case of A13G A68G A82U, the self-cleavage turned out to be 0.3.
On to G14U A82G A98G U103C, for which the self-cleavage was determined as 0.73.
Under A13G A23G U37C stands 0.66; under A13U A18G A117G U132C, 1.53; under U12C C17U G20U A52G A92G, 1.12.
Then U12C U43C A118G U131C, with 0.39.
Consider G15A A23G U100C, for which the self-cleavage was 1.72.
Consider C17U A82G U102C A126G, for which the self-cleavage came out at 0.82.
Regarding A13G A62G U70C A140G, the self-cleavage is 0.7.
Regarding A13G U19C U39C A62U U108C, the self-cleavage was 0.06.
A13G A23G U49C: the self-cleavage was 1.03.
As for A13U U37C A78U U133C, the self-cleavage turned out to be 0.47.
In the case of U12C U19C A47G, the self-cleavage amounted to 1.16.
Then A13U A24G A82G A94G, with 0.81; and U12C U43C A54G, with 1.58; and A13G A63G A68G A111G, with 0.11.
On to A13U A36C A59G A118U, for which the self-cleavage was determined as 0.45.
Then G15C A69G U100C U108C, with 0.03.
Then G14U C40U U87C U108C A129G, with 0.01; and U12C U43C U100C C128U, with 2.04; and U12C A54G A63G, with 0.47.
Take A13U A110U A117U: the self-cleavage came out at 1.62.
U12C U37A U57C: the self-cleavage was found to be 1.37.
Consider U12C A52G A116G, for which the self-cleavage was determined as 0.39.
Under G14C A56G A118G stands 0.98.
On to G14U U43C A86G, for which the self-cleavage was found to be 1.17.
A13G A55G A64G: the self-cleavage was 1.65.
Under A13G U49C A56G A68G stands 0.89.
As for G15A A24G U124C U130C, the self-cleavage was 0.66.
Under A13G A63G A90G A94U stands 0.69; under C17U A51G A98G U131C, 0.19.
Under A13U A56C A64G A114G stands 0.36; under U12C U26C A27G A33U A129G, 0.87; under A13G U70G U102G, 0.29.
On to U12C A30G U100C A118G, for which the self-cleavage was 1.58.
As to A13G A24U A67G A98C, the self-cleavage was found to be 1.56.
For A13C U139C A140U, the self-cleavage is 1.24.
Consider G15A A55G A67G G75U, for which the self-cleavage stood at 0.12.
Regarding C16A A23G G44A A129G, the self-cleavage amounted to 1.08.
As for G15A U49A A52G C71A, the self-cleavage is 0.38.
In the case of U12C A51G A63G A129G, the self-cleavage came out at 1.04.
On to C16U A63G A117G, for which the self-cleavage came to 1.8.
With A13G A36G A82U, the self-cleavage came to 0.15.
Consider U12C U100G A114G U130C, for which the self-cleavage turned out to be 0.28.
As for U12C U57C U108C, the self-cleavage is 0.1.
Consider C16U A55U A64G A89C A116G, for which the self-cleavage was determined as 0.54.
Regarding A13G U43A A62G U102A C112U U132A, the self-cleavage came out at 0.07.
Turning to A13U U43A A52C A54G U102C A111G A114U, the self-cleavage was 0.02.
On to C17A A22G C34U U39C U100C U103C, for which the self-cleavage is 1.4.
As to A13G A22G A118U, the self-cleavage was 0.31.
As for G15A U37C A60G G74C U127C, the self-cleavage worked out at 0.03.
On to A13G A66G A86G A89G U108A, for which the self-cleavage was 0.02.
As for A13G U87C A95G A111G A125G, the self-cleavage came out at 0.
In the case of U12C A62G A67G A95G, the self-cleavage is 1.34.
For A13G U39A U72C A96G, the self-cleavage was found to be 0.57.
As for U12G A23G G29U U49C A59U A135U, the self-cleavage was found to be 0.84.
On to A13G A23G A52G A116G, for which the self-cleavage was 0.63.
Under A13G A27G A30G A92G U102A A134G stands 0.89; under A13U A110G U132C, 0.03.
Take A13G U87C A116U: the self-cleavage is 0.61.
For G15U A52G C85U U87C, the self-cleavage is 1.47.
Regarding A13C A33G A52G A82C A96G, the self-cleavage was determined as 0.23.
Then A13U A27G A118G, with 1.76; and C17A A33G C35U U39A, with 0.7; and A13G U19C A59U A66G U122C, with 0.8.
As for U12C A60G U127C, the self-cleavage turned out to be 0.51.
As to A13G A82G U122C, the self-cleavage came out at 0.37.
As for U12C G48C A95G, the self-cleavage was found to be 1.35.
Regarding A13C A47U U49C A86G U100C A118G, the self-cleavage amounted to 1.68.
Then U12C A111U A125G, with 0.03.
Then A13G U43C A67G U87C, with 1.12; and U12C A36G A95G, with 1.42; and G14A A86U A114U U130C, with 0.01.
As for G15A U49C A129G, the self-cleavage turned out to be 0.28.
In the case of A13G A23G A52U A89G A116G, the self-cleavage worked out at 0.77.
Regarding U12C A67U U72C, the self-cleavage was 0.76.
A13G U57C A89G A90G A116U U131G: the self-cleavage came to 0.
U12C G50A A52G A54U A62U: the self-cleavage came out at 0.81.
On to A13G G20A A68G U87C U100C A110G, for which the self-cleavage was determined as 0.39.
Regarding C16A A56G U108C A110U, the self-cleavage was found to be 0.02.
With U12C A56G U57C U100A, the self-cleavage worked out at 0.61.
Turning to G14C G83A U139C, the self-cleavage amounted to 1.72.
